The values below come from PMC12136788.

B1: chr2:165759335:165759570:-|CDS|ENSG00000115339|control|control|control (ssRNA)
RNA: GGGAGUUCUACAGUCCGACGAUCUCUGUUGGCCAGAAUAGCUGAGAACUACACGGCUGUCGUAAGUCCAGAUAUUGCAUCCAUAGAUCUGAACACGUUUGAAUUCAACAAACCUUCUCCUUAUGGAAGUAACCAUAACCGUGGCAACAGAGGAUUGAGCAUCA
B2: chr11:4094911:4095012:+|5pUTR|ENSG00000167325|unk|FALSE|unique (ssRNA)
RNA: GGGAGUUCUACAGUCCGACGAUCAGCAGCGCCUGGAACCUAACCCUUCCCACUCUGUCACCUUCUCGAUCCCGCCGGCGCUUUAGAGCCGCAGUCCAGUCUUGGAUCCUUCAGAGCCUCAGCCACUAGCUGCGAUGCAUGUGACAACAGAGGAUUGAGCAUCA
B3: ENSG00000150457:stop:overlap|stop_codon|ENSG00000150457|stop_codon|NA|stop_codon (ssRNA)
RNA: GGGAGUUCUACAGUCCGACGAUCCAGAUUUAGAAAGCUCUGAUCUGGUGGAUCAGACUGAAGGCUGCCAGCCUGUGUACGUGUAGAUGGGGGCCAGGCACCCCCACCACUCGCUGCCUCCCAGGUCAGGGUCCCGGAGCCGGUCAACAGAGGAUUGAGCAUCA
B4: chr17:34256851:34257067:+|3pUTR|ENSG00000108691|msi1|total|mutant (ssRNA)
RNA: GGGAGUUCUACAGUCCGACGAUCUUAAGUAAUGUUAAUUCUUAUUUAAGUUAUUGAUGUUUUAAGUUUAUCUUUCAUGGUACCCGUGUUUUUCCGAUACAGAGACUUGGGGAAAUUGCUUUUCCUCUUGAACCACAGUUCUACCAACAGAGGAUUGAGCAUCA
B5: chr12:909583:909684:+|3pUTR|ENSG00000060237|unk|FALSE|bound_elsewhere (ssRNA)
RNA: GGGAGUUCUACAGUCCGACGAUCUAGCUCUGUCCUUUACUUAUUGAGACACUUUAACUUUUUCCUUUGUAUUUCCAUUGUAUUAGAUAAAUAAAUGUGAAUGUAAAAUUGUAUAAAUUACUGUACUUGAAUACUUCUGUUUCCCAACAGAGGAUUGAGCAUCA
B6: chr12:29502561:29502662:-|3pUTR|ENSG00000133687|msi1|total|mutant (ssRNA)
RNA: GGGAGUUCUACAGUCCGACGAUCUCUUAACAAUGAUGUAUGGCACAAUUGGUUGGUUGAGGCUAUCAUUCCAUGAUUACAAACCGGUGGUUAUGUGGGGUGGUUUUGCACUUGUGGCAAUUGGACUGCAAUUUGGCCUUAAAACAACAGAGGAUUGAGCAUCA
B7: chr13:25097967:25098071:+|CDS|ENSG00000151846|unk|total|mutant (ssRNA)
RNA: GGGAGUUCUACAGUCCGACGAUCAGAACUUCUUUAUAUGCUCGAGUCUCCAGAGUCACUCCGUUCUAAGGUUGAUGAAGCUGCCGCUGUACUACAAGCCCACCAAGCUAAAGAGGCUACCCAGAAAGCAGUUAACAGUGCUACCAACAGAGGAUUGAGCAUCA
B8: chr17:3714672:3714773:-|3pUTR|ENSG00000083457|msi1_unk|total|mutant (ssRNA)
RNA: GGGAGUUCUACAGUCCGACGAUCUUUGCAUUACUUUUUCCUUCAGGAUGAUCCCGAGCAGCAUGGAGCUGUUGGCCGAAUAUCCGUUUUUAACCAUACAUUGUCCCAAAAGUGUCUGUGCAUUGUGCAAAAAGUAAACUCCGGCAACAGAGGAUUGAGCAUCA
B9: chr8:38142699:38144272:-|three_prime_utr|ENSG00000147465|control|control|control (ssRNA)
RNA: GGGAGUUCUACAGUCCGACGAUCGGAAGCCUGCAAGUCUAAGAUCUCCAUCUGGUGACAGUGGGAUGGGUGGGGUUCGUGUUUAGAGUAUGACACUAGGAUUCAGAUUGGUGAAAGUUUUUAGUACCAAGAAAACAGGGAUGACAACAGAGGAUUGAGCAUCA
B10: chr12:62383855:62383964:+|CDS|ENSG00000135655|unk|total|mutant (ssRNA)
RNA: GGGAGUUCUACAGUCCGACGAUCGGCCGGACGUUUUGCACCUCAGUUCUCUGGAUAUCAGCAGCAAGACUGUCAAGAACUGUCCGCUUUCCUAUCCGAUGGAUUACAUGAGGAUUUGAACCGAAUCCGGAAAAAACCAUAUAUCAACAGAGGAUUGAGCAUCA
B11: chr11:112063736:112063838:+|3pUTR|ENSG00000150768|unk|total|mutant (ssRNA)
RNA: GGGAGUUCUACAGUCCGACGAUCGAGAGAAAAAAUUAACCCGGUUGCUACUUUAUUUGCCUAAAUACUUUUUUCUAUUUUGUCCGAUUUUGCCUUUCUUUUGGAAGGAAGGAGGCGAUAUUCUGGAUUAUAAAAAUGAAUUGGCAACAGAGGAUUGAGCAUCA
B12: chr7:139028693:139028797:-|CDS|ENSG00000146858|unk|total|mutant (ssRNA)
RNA: GGGAGUUCUACAGUCCGACGAUCUUUCAGAUAAUCUCCACCUACAAGCAUAUGAAGCUGCACAAGAUGCUUGAAAAUACAGGCCGGAAUAUCCAAGAAGGACAGAGAAGUAUCAGCGAUAUGGUUUUGCGAUGCUUCACUGUGCAACAGAGGAUUGAGCAUCA
B13: chr5:75360489:75360590:+|3pUTR|ENSG00000113161|msi1|total|mutant (ssRNA)
RNA: GGGAGUUCUACAGUCCGACGAUCGCUCUUUCAGAGAGGUCUCAGGUUCUUUCCAUGCAGACUCCUCAGAUCUGAACACAGUUCCGUGCUUUACAUGCUGUGCUCUUUGAAGAGAUUUCAACAAGAAUAUUGUAUGUUAAAGCACAACAGAGGAUUGAGCAUCA
B14: chr11:61866962:61867357:+|3pUTR|ENSG00000134824|msi1|total|mutant (ssRNA)
RNA: GGGAGUUCUACAGUCCGACGAUCAGAUUCAGGGGAAGGGCAGGCACCAACAACUCAGAAUGGGGGCUUUCGGGGAGGGCGCCCCGUCCCCCCAGCUCUAAGCAGCCAGGAGGGACCUGCAUCUAAGCAUCUGGGUUGCCAUGGCAACAGAGGAUUGAGCAUCA
B15: chr15:74179522:74179623:-|3pUTR|ENSG00000137868|msi1|total|mutant (ssRNA)
RNA: GGGAGUUCUACAGUCCGACGAUCUCAUGACUCAGACCAGGUCCCACACUGAGCUGCCCACACUCGAGAGCCAGAUAUUUUUGCCGUUUUUAUGCCUUUGGCUAUUAUGAAAGAGGUCCGUGUGUUCCCUGCAAUAAACUUGUUCAACAGAGGAUUGAGCAUCA
B16: ENSG00000070961:be:win_5801|3pUTR|ENSG00000070961|bound_else_gene|NA|bound_elsewhere_windowed (ssRNA)
RNA: GGGAGUUCUACAGUCCGACGAUCGAAAAGGGAAAUGUUUUCAGUUUUCUUUUUUAUUUUGGUUAUGCUUAAAUAUGAAUGUAAUUACCAAAAGAUUUAGAAGUGCAUGUGCUUUGGAGGAUUUGUAUUGAGCUUUUACAGUAUCAACAGAGGAUUGAGCAUCA
B17: chr9:14719723:14720089:-|three_prime_utr|ENSG00000147869|control|control|control (ssRNA)
RNA: GGGAGUUCUACAGUCCGACGAUCUUCAGUCUGAAAAUGUUAAGUGGGUACAUAACAUUUUCAGGGAAAGGUGACUUGAAACGUAGUUUUAAAUUAGAACGAUAGAGGAAAUGAUAUUAGUCUAGUUAUUGGUACACGUUUGAGCAACAGAGGAUUGAGCAUCA
B18: chr12:76025442:76025543:-|3pUTR|ENSG00000139289|msi1|total|mutant (ssRNA)
RNA: GGGAGUUCUACAGUCCGACGAUCAUACACCAUCACAUUCAUGAAUUUUUCCGCAUGGUCAGAACUUGUGUAAAUAUGUCUCUCCGAUGAUUUUGGGGAGAUGUGAUUUAUUUUUCAUAUUUUCAAAAUGCAUUUCAUUUCAAACAACAGAGGAUUGAGCAUCA
B19: ENSG00000198589:be:win_101|CDS|ENSG00000198589|bound_else_gene|NA|bound_elsewhere_windowed (ssRNA)
RNA: GGGAGUUCUACAGUCCGACGAUCCUCUGAAACCAGGGCUCCCCAUCAGGGGCAUCAGAAUGAAAUUUGCCGUGUUGACCGGUUUGGUUGAAGUUGGAGAAGUAUCCAAUAGGGAUAUUGUAGAAACUGUCUUUAACCUGUUGGCAACAGAGGAUUGAGCAUCA
B20: chr17:29498396:29498497:+|CDS|ENSG00000160551|msi1|FALSE|bound_elsewhere (ssRNA)
RNA: GGGAGUUCUACAGUCCGACGAUCCAGCAGCCAAAGCAGUAGUGUUAACAGUCUUCCAGAUGUCUCAGAUGACAAGAGUGAGCUAGACAUGAUGGAGGGAGACCACACAGUGAUGUCUAACAGUUCUGUUAUCCAUUUAAAACCCAACAGAGGAUUGAGCAUCA
B21: chr17:49055506:49055607:+|3pUTR|ENSG00000159217|unk|total|mutant (ssRNA)
RNA: GGGAGUUCUACAGUCCGACGAUCCACUUCCCGGCUGUGGGGGCUGGGGAGCCACUUGUAACAUUUCUGUGCAGAUUUUAUGUCCGCCACUGCUAUGUAAAAGCACGUUCAAAAUGAAUUUCAGCAGAUUAUGUGUUACCAUAACAACAGAGGAUUGAGCAUCA
B22: ENSG00000136451:be:win_3901|3pUTR|ENSG00000136451|bound_else_gene|NA|bound_elsewhere_windowed (ssRNA)
RNA: GGGAGUUCUACAGUCCGACGAUCAUAAACAGGAGUGAGACUUCAUUGUAUGACUUCAGUUAAAAUACUAUUUUGUAUGCAUUCUUUAUUCACUUAAGAAGCUUGUCUGCAAUAAUAAAGCCACGUCAUGUCUUCUUUUGGGAGCAACAGAGGAUUGAGCAUCA

The list shows a part of the results.

The assay addresses MSI1 full-length (mouse, UniProt Q61474 1-362). In words: nsRBNS (natural sequence RNA bind-n-seq); RBNS binding buffer (assumed for nsRBNS): 25 mM Tris pH 7.5, 150 mM KCl, 3 mM MgCl2, 0.01% Triton X-100, 500 ug/ml BSA, 20 U/ml SUPERase-In, 4 C; UNK is unkempt and MSI1 is Musashi-1; names of the RNAs are library labels; protein concentration not given here; high values mean tight binding.
UniProt Q61474, sequence (Q61474 whole entry): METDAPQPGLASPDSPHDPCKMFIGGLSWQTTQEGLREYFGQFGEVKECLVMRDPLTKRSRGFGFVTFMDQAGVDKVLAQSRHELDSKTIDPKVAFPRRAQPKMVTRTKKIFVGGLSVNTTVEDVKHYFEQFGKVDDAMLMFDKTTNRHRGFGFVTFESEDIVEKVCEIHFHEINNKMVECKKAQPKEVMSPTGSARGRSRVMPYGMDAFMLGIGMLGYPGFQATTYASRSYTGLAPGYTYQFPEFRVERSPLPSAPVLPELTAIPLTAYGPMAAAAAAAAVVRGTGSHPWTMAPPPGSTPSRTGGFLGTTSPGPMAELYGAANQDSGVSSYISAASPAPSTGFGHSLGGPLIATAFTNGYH
In turn, B1 had a binding signal of 0.318 enrichment R.

B2 showed a binding signal of 0.635 enrichment R.

Take B3: the binding signal was 0.418 enrichment R.

B4: the binding signal came to 0.643 enrichment R.

Take B5: the binding signal was determined as 13.1 enrichment R.

B6 returned a binding signal of 0.31 enrichment R.

As for B7, the binding signal was 0.468 enrichment R.

B8 returned a binding signal of 0.264 enrichment R.

Regarding B9, the binding signal stood at 1.43 enrichment R.

Molecule B10 returned a binding signal of 0.357 enrichment R.

B11: the binding signal stood at 0.378 enrichment R.

For the molecule B12, the binding signal turned out to be 0.231 enrichment R.

B13 displayed a binding signal of 0.132 enrichment R.

As for B14, the binding signal is 0.416 enrichment R.

Turning to B15, the binding signal is 0.389 enrichment R.

As for B16, the binding signal amounted to 1.05 enrichment R.

In the case of B17, the binding signal turned out to be 2.87 enrichment R.

Molecule B18 showed a binding signal of 0.318 enrichment R.

B19 came in with a binding signal of 3.23 enrichment R.

Molecule B20 displayed a binding signal of 0.671 enrichment R.

As to B21, the binding signal was 0.336 enrichment R.

Consider B22, for which the binding signal is 0.334 enrichment R.
